T1: His-tagged ectodomain of cynomolgus transferrin receptor 1 (cTfR1, R121-F760) (cynomolgus, UniProt Q5RDH6 121-760 (Pongo abelii entry))
T1 construct: also called cynomolgus TfR1
T1 chain: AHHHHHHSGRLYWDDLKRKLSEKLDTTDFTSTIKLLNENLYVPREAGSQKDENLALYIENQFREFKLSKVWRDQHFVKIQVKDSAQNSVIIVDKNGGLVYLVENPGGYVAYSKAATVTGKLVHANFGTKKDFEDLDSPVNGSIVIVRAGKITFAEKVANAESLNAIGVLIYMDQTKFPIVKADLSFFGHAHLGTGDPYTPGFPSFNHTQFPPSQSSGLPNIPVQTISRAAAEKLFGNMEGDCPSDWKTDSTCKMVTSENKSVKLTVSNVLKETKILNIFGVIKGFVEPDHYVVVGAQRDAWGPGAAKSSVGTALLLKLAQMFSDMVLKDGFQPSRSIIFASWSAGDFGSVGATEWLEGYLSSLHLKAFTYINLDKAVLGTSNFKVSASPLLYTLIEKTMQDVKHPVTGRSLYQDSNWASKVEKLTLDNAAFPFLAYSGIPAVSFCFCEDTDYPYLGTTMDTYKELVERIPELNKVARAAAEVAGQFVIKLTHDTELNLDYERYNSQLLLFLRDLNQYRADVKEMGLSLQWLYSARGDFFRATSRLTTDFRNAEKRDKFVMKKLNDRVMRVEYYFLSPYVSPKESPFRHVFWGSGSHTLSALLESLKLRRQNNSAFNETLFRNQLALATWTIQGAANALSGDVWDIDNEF


Assays:
[1] = target: T2, His-tagged ectodomain of human transferrin receptor 1 (hTfR1, R121-F760) (human, UniProt P02786 in part); test: SPR Biacore 8K single-cycle; VHH-Fc on protein A chip, TfR1 ectodomain as analyte
T2 construct: Made in CHO cells; Biotinylated for some uses; also called human TfR1

[2] = target: T3, His-tagged ectodomain of mouse transferrin receptor 1 (mTfR1, S122-F763) (mouse, UniProt Q62351 in part); test: as above
T3 construct: also called mouse TfR1

[3] = target: T2, His-tagged ectodomain of human …; test: SPR; binder on protein A chip, hTfR1 as analyte
[4] = target: T3, His-tagged ectodomain of mouse …; test: SPR; binder on protein A chip, mTfR1 as analyte
[5] = target: T2, His-tagged ectodomain of human …; test: SPR; binder on protein A chip, hTfR1 as analyte, without hTf
[6] = target: T2, His-tagged ectodomain of human …; test: SPR Biacore T200; binder on protein A chip, TfR1 ectodomain as analyte
[7] = target: T3, His-tagged ectodomain of mouse …; test: as above
[8] = target: T1, His-tagged ectodomain of cynomolgus …; test: as above
[9] = target: T2, His-tagged ectodomain of human …; test: SPR; binder on protein A chip, hTfR1 as analyte, with and without 250 nM hTf
[10] = target: T2, His-tagged ectodomain of human …; test: SPR; binder on protein A chip, hTfR1 as analyte, in presence of 250 nM hTf

T3 sequence (Q62351 other isoform, or with tags, fused parts or gaps limits assumed): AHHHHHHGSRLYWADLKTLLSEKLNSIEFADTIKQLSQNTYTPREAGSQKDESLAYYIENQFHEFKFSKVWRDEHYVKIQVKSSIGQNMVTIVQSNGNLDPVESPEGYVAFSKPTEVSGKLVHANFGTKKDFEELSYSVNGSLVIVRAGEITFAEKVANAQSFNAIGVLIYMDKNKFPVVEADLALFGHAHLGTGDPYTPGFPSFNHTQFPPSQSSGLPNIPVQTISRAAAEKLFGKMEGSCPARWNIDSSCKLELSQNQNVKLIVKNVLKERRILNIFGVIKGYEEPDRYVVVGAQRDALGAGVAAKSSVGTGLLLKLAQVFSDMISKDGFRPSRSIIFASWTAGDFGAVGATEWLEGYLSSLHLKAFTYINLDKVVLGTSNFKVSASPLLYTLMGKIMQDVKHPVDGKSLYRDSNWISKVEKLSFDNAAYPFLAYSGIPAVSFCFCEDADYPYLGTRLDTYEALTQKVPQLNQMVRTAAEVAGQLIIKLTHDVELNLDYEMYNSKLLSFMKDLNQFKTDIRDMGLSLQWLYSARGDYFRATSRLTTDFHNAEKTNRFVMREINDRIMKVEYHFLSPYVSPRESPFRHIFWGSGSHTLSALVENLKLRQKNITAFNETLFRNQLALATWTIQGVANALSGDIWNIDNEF

Binder | Kd [1] | koff [1] | kon [1] | Kd [2] | koff [2] | kon [2] | further results
KB_B05 Fc fusion (Fc fusion, Dimeric VHH-GG-human IgG1 Fc) QVQLQESGGGLVQAGGSLRLSCVASGTDFSMNYMRWYRQAPGKQREWVAGFTSTGSTNYPDSMKGRFTISRDNAKNTVYLQMDSLKPEDTAVYYCHFLGDWGQGTQVTVSSGG[letters of human IgG1 Fc not shown] | 0.0141 nM | 3.48e-06 s⁻¹ | 247000 M⁻¹ s⁻¹ | 83.7 nM | 69.9 s⁻¹ | 8.35e+08 M⁻¹ s⁻¹ | –
KB_B01 Fc fusion (KB_B01, GG spacer, human IgG1 Fc) (Fc fusion, Bivalent dimer made in Expi293 cells) QVQLQESGGGLVQAGGSLRLSCAASGTPFSNNYMRWYRQAPGKQREWVAGFTSGGSTNYADSVKGRFTISRDNAEGTVYLQMDNLKPEDTAVYYCYFLDVWGQGTQVTVSSGG[letters of human IgG1 Fc not shown] | – | – | – | – | – | – | fold higher affinity than free monomeric KB_B01 [3]: 19 fold; fold lower affinity than BV-Fc [4]: 6.4 fold; Kd [5]: 0.0667 nM; koff [5]: 4.34e-05 s⁻¹; kon [5]: 651000 M⁻¹ s⁻¹; Kd [6]: 0.176 nM; koff [6]: 9.67e-05 s⁻¹; kon [6]: 550000 M⁻¹ s⁻¹; Kd [7]: 2.82 nM; koff [7]: 0.0235 s⁻¹; kon [7]: 8.35e+06 M⁻¹ s⁻¹; koff [8]: 8.18e-05 s⁻¹; kon [8]: 765000 M⁻¹ s⁻¹; fold drop in affinity with 250 nM hTf versus without hTf [9]: 10 fold; Kd [10]: 0.664 nM; koff [10]: 0.000101 s⁻¹; kon [10]: 152000 M⁻¹ s⁻¹
KB_B03 Fc fusion (Fc fusion, Dimeric VHH-GG-human IgG1 Fc) QVQLQESGGGLVQAGGSLRLSCAASGTDFSLNYMRWYRQAPGKQREWVAGFTTHGDTNYADSMKGRFTISRDNAKNTVYLQMDSLKPEDTAVYFCYFLDNWGQGTQVTVSSGG[letters of human IgG1 Fc not shown] | 0.0701 nM | 2.13e-05 s⁻¹ | 303000 M⁻¹ s⁻¹ | 0.679 nM | 4.58e-05 s⁻¹ | 67500 M⁻¹ s⁻¹ | –
KB_B04 Fc fusion (Fc fusion, Dimeric VHH-GG-human IgG1 Fc) QVQLQESGGGLVQAGGSLRLSCALSGTDFSMNYMRWYRQAPGKQREWVAGFTSSGNTNYPDSVKGRFTISRDNAKNTVYLQMDSLKPEDTAVYYCYFLDNWGQGTQVTVSSGG[letters of human IgG1 Fc not shown] | 0.00495 nM | 1.16e-06 s⁻¹ | 234000 M⁻¹ s⁻¹ | 4.19 nM | 0.000388 s⁻¹ | 92800 M⁻¹ s⁻¹ | –
KB_B06 Fc fusion (Fc fusion, Dimeric VHH-GG-human IgG1 Fc) QVQLQESGGGLVQTGGSLRLSCVVSGTDFSLNYLRWYRQAPGNQREWVAGFTATGSTNYPDSMKGRFTIGRDNAKNTVYLQMDSLKPEDTAVYYCHFLGDWGQGTQVTVSSGG[letters of human IgG1 Fc not shown] | 0.0153 nM | 3.79e-06 s⁻¹ | 247000 M⁻¹ s⁻¹ | 89.7 nM | 58.5 s⁻¹ | 6.53e+08 M⁻¹ s⁻¹ | –
KB_B07 Fc fusion (Fc fusion, Dimeric VHH-GG-human IgG1 Fc) QVQLQESGGGLVQTGGSLRLSCVVSGTDFSLNYLRWYRQAPGKQREWVAGFTASGSTNYPDSMKGRFTIGRDNAKNTVYLQMDSLTPEDTAVYYCHFLGDWGQGTQVTVSSGG[letters of human IgG1 Fc not shown] | 0.0184 nM | 4.48e-06 s⁻¹ | 243000 M⁻¹ s⁻¹ | 67.8 nM | 47.9 s⁻¹ | 7.07e+08 M⁻¹ s⁻¹ | –
KB_B08 Fc fusion (Fc fusion, Dimeric VHH-GG-human IgG1 Fc) QVQLQESGRGVVQAGGSLRLSCAASGNRFGIEYMRWYRQAPGKQREFVAGFTSAGSTNYGDSVKGRFTISRDNAKNTVYLQMDSLIPEDTAVYYCHYLGDWGQGTQVTVSSGG[letters of human IgG1 Fc not shown] | 0.451 nM | 7.09e-05 s⁻¹ | 157000 M⁻¹ s⁻¹ | 116 nM | 53.4 s⁻¹ | 4.58e+08 M⁻¹ s⁻¹ | –
KB_B09 Fc fusion (Fc fusion, Dimeric VHH-GG-human IgG1 Fc) QVQLQESGGGLVQVGGSLRLSCAASDSAFSMNTMYWYRQAPGKQREFVAYIVSDDNTRYADSVKGRFTISRDNAKNTVYLQMNSLKPEDTAVYYCKGDVVWGQGTQVTVSSGG[letters of human IgG1 Fc not shown] | 0.0347 nM | 7.53e-07 s⁻¹ | 21700 M⁻¹ s⁻¹ | 13 nM | 0.000104 s⁻¹ | 7980 M⁻¹ s⁻¹ | –
KB_B10 Fc fusion (Fc fusion, Dimeric VHH-GG-human IgG1 Fc) QVQLQESGGGLVQVGGSLRLSCAASDSAFNMNTMYWYRQAPGKSREFVAWIVSDDNTQYADSVKGRFTISRDNAKNTVYLQMNNLKPEDTGVYYCKGDVVWGQGTQVTVSSGG[letters of human IgG1 Fc not shown] | < 0.00309 nM | < 1e-07 s⁻¹ | 32300 M⁻¹ s⁻¹ | < 0.0171 nM | < 1e-07 s⁻¹ | 5830 M⁻¹ s⁻¹ | –
Benchmark VHH of WO 2020/144233 fused to human IgG1 Fc (BV-Fc) (Fc fusion, also called benchmark BV) EVQLVESGGGVVQPGGSLKLSCVASGTDFSINFIRWYRQAPGKQREFVAGFTATGNTNYADSMKGRFTISRDNTKNAVYLQIDSLKPEDTAVYYCYMLDKWGQGTQVTVSSGG[letters of human IgG1 Fc not shown] | – | – | – | – | – | – | Kd [5]: 0.000531 nM; koff [5]: 2.86e-07 s⁻¹; kon [5]: 538000 M⁻¹ s⁻¹; Kd [6]: 0.00228 nM; koff [6]: 1.26e-06 s⁻¹; kon [6]: 551000 M⁻¹ s⁻¹; Kd [7]: 0.444 nM; koff [7]: 0.00017 s⁻¹; kon [7]: 382000 M⁻¹ s⁻¹; Kd [8]: 0.00136 nM; koff [8]: 2.61e-07 s⁻¹; kon [8]: 191000 M⁻¹ s⁻¹; fold drop in affinity with 250 nM hTf versus without hTf [9]: ~390 fold; Kd [10]: 0.207 nM; koff [10]: 0.000113 s⁻¹; kon [10]: 549000 M⁻¹ s⁻¹
KB_B02 Fc fusion (Fc fusion, Dimeric VHH-GG-human IgG1 Fc) QVQLQESGGGLVQAGGSLRLSCTASGTPFTNNYMRWYRQAPGKQREWVAGFTSAGNTNYADSVKGRFTISRDNAEGTVYLQMDNLKPEDTAVYYCYFLDVWGQGTQVTVSSGG[letters of human IgG1 Fc not shown] | 0.206 nM | 4.03e-05 s⁻¹ | 196000 M⁻¹ s⁻¹ | 2.61 nM | 0.000211 s⁻¹ | 80900 M⁻¹ s⁻¹ | –
